Measurements as given in paper PMC7332293.
These are yes or no findings as the source states them, for the method shown. In cells and extracts the contact can be indirect. Some entries that bind do so weakly or less than the wild type. For part of these data: Sequences can lack the tags named with a protein.

Protein sequences, listed by entry. Tags and fused reporters are not part of them.
UniProt Q86TM6: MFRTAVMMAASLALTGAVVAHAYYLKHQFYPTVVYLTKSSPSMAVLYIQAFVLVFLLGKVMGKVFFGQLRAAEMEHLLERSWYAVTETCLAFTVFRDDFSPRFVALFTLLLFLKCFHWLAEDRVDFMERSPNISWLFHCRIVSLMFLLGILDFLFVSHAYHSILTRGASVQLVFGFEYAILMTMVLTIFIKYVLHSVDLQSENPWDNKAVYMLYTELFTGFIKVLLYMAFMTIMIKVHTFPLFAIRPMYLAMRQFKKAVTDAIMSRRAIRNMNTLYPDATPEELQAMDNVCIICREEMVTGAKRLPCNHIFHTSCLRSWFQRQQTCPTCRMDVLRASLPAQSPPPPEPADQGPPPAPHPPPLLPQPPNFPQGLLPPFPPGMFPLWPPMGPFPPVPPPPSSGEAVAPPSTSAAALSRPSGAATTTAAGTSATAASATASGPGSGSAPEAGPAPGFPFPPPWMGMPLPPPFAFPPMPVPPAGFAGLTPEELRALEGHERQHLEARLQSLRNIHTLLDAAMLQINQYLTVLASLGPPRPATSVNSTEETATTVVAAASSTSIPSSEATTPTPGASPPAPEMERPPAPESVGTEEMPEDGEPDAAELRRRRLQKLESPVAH
UniProt Q9BY78: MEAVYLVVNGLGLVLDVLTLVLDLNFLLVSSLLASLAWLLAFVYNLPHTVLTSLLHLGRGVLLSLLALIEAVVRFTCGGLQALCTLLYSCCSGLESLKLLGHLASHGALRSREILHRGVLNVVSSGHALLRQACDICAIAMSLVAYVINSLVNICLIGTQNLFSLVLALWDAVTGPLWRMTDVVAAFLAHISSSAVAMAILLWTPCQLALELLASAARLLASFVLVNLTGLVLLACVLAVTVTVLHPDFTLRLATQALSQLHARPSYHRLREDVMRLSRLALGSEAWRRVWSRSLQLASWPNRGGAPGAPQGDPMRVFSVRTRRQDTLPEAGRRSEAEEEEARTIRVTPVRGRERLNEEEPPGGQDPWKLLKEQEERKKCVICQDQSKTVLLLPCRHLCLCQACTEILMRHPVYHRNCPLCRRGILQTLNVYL

How the values were obtained:
[1] = biological target: endogenous Hrd1 (human (endogenous in Flp-In293)), Q86TM6; assay: co-IP; endogenous Hrd1 (anti-Hrd1) or DOX-induced Hrd1-FH (anti-FLAG) from lysates prepared in 1% LMNG; western blot of endogenous cofactors; conditions: remark: other sources report otherwise
Hrd1-FH (human), Q86TM6 = assay: as above; conditions: remark: other sources report otherwise
[2] = biological target: endogenous Hrd1 (human (endogenous in Flp-In293)) (UniProt Q86TM6); assay: as above
Hrd1-FH (human) = Hrd1-FH (human) (UniProt Q86TM6); assay: as above
S-tagged TMEM43 (human) = biological target: T1, S-tagged TMEM43 (human) (UniProt Q9BTV4); assay: pull-down; S-tagged HCIP transiently expressed in Flp-In293 cells stably expressing the FH-tagged E3; lysates in 1% LMNG; S-protein agarose; western blot
T1 sequence: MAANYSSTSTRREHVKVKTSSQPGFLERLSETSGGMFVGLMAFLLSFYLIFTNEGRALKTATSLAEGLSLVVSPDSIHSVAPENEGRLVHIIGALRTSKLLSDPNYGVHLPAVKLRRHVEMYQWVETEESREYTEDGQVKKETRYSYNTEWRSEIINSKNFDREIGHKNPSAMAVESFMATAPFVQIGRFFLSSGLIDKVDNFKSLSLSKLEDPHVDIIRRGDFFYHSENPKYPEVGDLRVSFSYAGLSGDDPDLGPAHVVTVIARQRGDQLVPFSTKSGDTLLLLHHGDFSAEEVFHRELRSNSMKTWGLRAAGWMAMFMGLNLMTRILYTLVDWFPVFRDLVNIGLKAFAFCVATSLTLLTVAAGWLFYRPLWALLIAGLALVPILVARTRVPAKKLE

S-tagged AUP1 = biological target: T2, S-tagged AUP1 (UniProt Q9Y679); assay: as above
T2 sequence: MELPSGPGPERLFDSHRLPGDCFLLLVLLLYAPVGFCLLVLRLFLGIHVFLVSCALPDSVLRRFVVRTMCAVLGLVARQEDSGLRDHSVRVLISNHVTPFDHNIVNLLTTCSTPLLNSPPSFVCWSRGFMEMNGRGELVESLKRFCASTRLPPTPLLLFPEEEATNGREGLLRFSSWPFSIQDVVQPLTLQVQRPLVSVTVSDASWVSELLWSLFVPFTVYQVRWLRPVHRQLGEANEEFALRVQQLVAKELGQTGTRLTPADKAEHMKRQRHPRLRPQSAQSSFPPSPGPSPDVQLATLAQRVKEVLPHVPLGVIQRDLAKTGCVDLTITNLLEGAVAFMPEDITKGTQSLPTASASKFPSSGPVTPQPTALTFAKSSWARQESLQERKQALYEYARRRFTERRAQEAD

S-tagged TMED1 (human) = biological target: T3, S-tagged TMED1 (human) (UniProt Q13445); assay: as above
T3 sequence: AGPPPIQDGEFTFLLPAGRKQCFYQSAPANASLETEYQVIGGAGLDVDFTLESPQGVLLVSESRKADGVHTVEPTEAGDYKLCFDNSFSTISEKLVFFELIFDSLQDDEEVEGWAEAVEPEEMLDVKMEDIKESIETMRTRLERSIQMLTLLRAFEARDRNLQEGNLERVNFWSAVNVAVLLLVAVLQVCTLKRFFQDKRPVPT

S-tagged UBXD8 = biological target: T4, S-tagged UBXD8 (UniProt Q96CS3); assay: as above
T4 sequence: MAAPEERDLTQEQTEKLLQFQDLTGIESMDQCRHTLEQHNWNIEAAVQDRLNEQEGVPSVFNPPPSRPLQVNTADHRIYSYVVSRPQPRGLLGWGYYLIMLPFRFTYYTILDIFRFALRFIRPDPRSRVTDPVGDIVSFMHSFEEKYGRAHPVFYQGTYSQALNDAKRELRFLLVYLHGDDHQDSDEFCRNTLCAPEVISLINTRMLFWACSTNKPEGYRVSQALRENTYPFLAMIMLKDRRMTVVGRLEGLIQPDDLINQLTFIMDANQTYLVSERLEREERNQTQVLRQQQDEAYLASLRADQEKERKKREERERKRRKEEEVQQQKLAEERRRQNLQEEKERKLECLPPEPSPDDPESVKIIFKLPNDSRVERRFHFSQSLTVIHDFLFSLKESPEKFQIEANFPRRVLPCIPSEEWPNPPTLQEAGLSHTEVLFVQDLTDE

FH-RNF26WT (human) = FH-RNF26WT (human) (UniProt Q9BY78); assay: co-sedimentation; velocity sedimentation of 1% LMNG lysates of FH-RNF26WT cells on a 5-30% sucrose gradient (39,000 rpm, 16 hr, 4°C); 13 fractions, TCA-precipitated, western blot

B1: UBE2J1, Q9Y385 1-318 (enzyme)
chain: METRYNLKSPAVKRLMKEAAELKDPTDHYHAQPLEDNLFEWHFTVRGPPDSDFDGGVYHGRIVLPPEYPMKPPSIILLTANGRFEVGKKICLSISGHHPETWQPSWSIRTALLAIIGFMPTKGEGAIGSLDYTPEERRALAKKSQDFCCEGCGSAMKDVLLPLKSGSDSSQADQEAKELARQISFKAEVNSSGKTISESDLNHSFSLTDLQDDIPTTFQGATASTSYGLQNSSAASFHQPTQPVAKNTSMSPRQRRAQQQSQRRLSTSPDVIQGHQPRDNHTDHGGSAVLIVILTLALAALIFRRIYLANEYIFDFEL
Question: For B1, which binding [1] is on record?
Answer: Its binding is “binds”.

Question: And the binding (Hrd1-FH (human), Q86TM6)?
Answer: The binding was “binds”.

B2: FAM8A1 (protein, UniProt Q9UBU6 1-413)
chain: MAEGPEEARGHPPGQDDGGGDHEPVPSLRGPPTTAVPCPRDDPQAEPQAPGRPTAPGLAAAAAADKLEPPRELRKRGEAASGSGAELQEQAGCEAPEAAAPRERPARLSAREYSRQVHEWLWQSYCGYLTWHSGLAAFPAYCSPQPSPQSFPSGGAAVPQAAAPPPPQLGYYNPFYFLSPGAAGPDPRTAAGISTPAPVAGLGPRAPHVQASVRATPVTRVGSAAPSRSPSETGRQAGREYVIPSLAHRFMAEMVDFFILFFIKATIVLSIMHLSGIKDISKFAMHYIIEEIDEDTSMEDLQKMMVVALIYRLLVCFYEIICIWGAGGATPGKFLLGLRVVTCDTSVLIAPSRVLVIPSSNVSITTSTIRALIKNFSIASFFPAFITLLFFQHNRTAYDIVAGTIVVKRNGVR
Question: For B2, which binding [2] is on record?
Answer: The binding was “binds”.

Question: What about the binding (Hrd1-FH (human)) of the same binder?
Answer: The binding was “binds”.

B3: OS-9 (protein, UniProt Q13438 26-667)
chain: GGVGSLNLEELSEMRYGIEILPLPVMGGQSQSSDVVIVSSKYKQRYECRLPAGAIHFQREREEETPAYQGPGIPELLSPMRDAPCLLKTKDWWTYEFCYGRHIQQYHMEDSEIKGEVLYLGYYQSAFDWDDETAKASKQHRLKRYHSQTYGNGSKCDLNGRPREAEVRFLCDEGAGISGDYIDRVDEPLSCSYVLTIRTPRLCPHPLLRPPPSAAPQAILCHPSLQPEEYMAYVQRQADSKQYGDKIIEELQDLGPQVWSETKSGVAPQKMAGASPTKDDSKDSDFWKMLNEPEDQAPGGEEVPAEEQDPSPEAADSASGAPNDFQNNVQVKVIRSPADLIRFIEELKGGTKKGKPNIGQEQPVDDAAEVPQREPEKERGDPERQREMEEEEDEDEDEDEDEDERQLLGEFEKELEGILLPSDRDRLRSEVKAGMERELENIIQETEKELDPDGLKKESERDRAMLALTSTLNKLIKRLEEKQSPELVKKHKKKRVVPKKPPPSPQPTEEDPEHRVRVRVTKLRLGGPNQDLTVLEMKRENPQLKQIEGLVKELLEREGLTAAGKIEIKIVRPWAEGTEEGARWLTDEDTRNLKEIFFNILVPGAEEAQKERQRQKELESNYRRVWGSPGGEGTGDLDEFDF
Question: What does the source list for B3?
Answer: binding [2]: binds; binding (Hrd1-FH (human)): binds

B4: Herp, Q15011 1-391 (protein)
chain: MESETEPEPVTLLVKSPNQRHRDLELSGDRGWSVGHLKAHLSRVYPERPRPEDQRLIYSGKLLLDHQCLRDLLPKQEKRHVLHLVCNVKSPSKMPEINAKVAESTEEPAGSNRGQYPEDSSSDGLRQREVLRNLSSPGWENISRPEAAQQAFQGLGPGFSGYTPYGWLQLSWFQQIYARQYYMQYLAATAASGAFVPPPSAQEIPVVSAPAPAPIHNQFPAENQPANQNAAPQVVVNPGANQNLRMNAQGGPIVEEDDEINRDWLDWTYSAATFSVFLSILYFYSSLSRFLMVMGATVVMYLHHVGWFPFRPRPVQNFPNDGPPPDVVNQDPNNNLQEGTDPETEDPNHLPPDRDVLDGEQTSPSFMSTAWLVFKTFFASLLPEGPPAIAN
Question: B4 was tested. Which binding [1] did it give?
Answer: The binding was “binds”.

Question: And the binding (Hrd1-FH (human), Q86TM6)?
Answer: Its binding is “binds”.

B5: ENDOD1 (endonuclease domain containing-1), endogenous (protein, UniProt O94919 22-500)
chain: RLVGEEEAGFGECDKFFYAGTPPAGLAADSHVKICQRAEGAERFATLYSTRDRIPVYSAFRAPRPAPGGAEQRWLVEPQIDDPNSNLEEAINEAEAITSVNSLGSKQALNTDYLDSDYQRGQLYPFSLSSDVQVATFTLTNSAPMTQSFQERWYVNLHSLMDRALTPQCGSGEDLYILTGTVPSDYRVKDKVAVPEFVWLAACCAVPGGGWAMGFVKHTRDSDIIEDVMVKDLQKLLPFNPQLFQNNCGETEQDTEKMKKILEVVNQIQDEERMVQSQKSSSPLSSTRSKRSTLLPPEASEGSSSFLGKLMGFIATPFIKLFQLIYYLVVAILKNIVYFLWCVTKQVINGIESCLYRLGSATISYFMAIGEELVSIPWKVLKVVAKVIRALLRILCCLLKAICRVLSIPVRVLVDVATFPVYTMGAIPIVCKDIALGLGGTVSLLFDTAFGTLGGLFQVVFSVCKRIGYKVTFDNSGEL
Question: How did the binding (S-tagged TMEM43 (human)) turn out when B5 was run?
Answer: The binding was “binds”.

Question: And the binding (S-tagged AUP1)?
Answer: The binding was “no binding”.

Question: And the binding (S-tagged TMED1 (human))?
Answer: Its binding is “binds”.

Question: And the binding (S-tagged UBXD8)?
Answer: The binding was “no binding”.

B6: TMEM33 (endogenous) (protein, UniProt P57088 1-247)
chain: MADTTPNGPQGAGAVQFMMTNKLDTAMWLSRLFTVYCSALFVLPLLGLHEAASFYQRALLANALTSALRLHQRLPHFQLSRAFLAQALLEDSCHYLLYSLIFVNSYPVTMSIFPVLLFSLLHAATYTKKVLDARGSNSLPLLRSVLDKLSANQQNILKFIACNEIFLMPATVFMLFSGQGSLLQPFIYYRFLTLRYSSRRNPYCRTLFNELRIVVEHIIMKPACPLFVRRLCLQSIAFISRLAPTVP
Question: What does the source list for B6?
Answer: binding (S-tagged TMEM43 (human)): no binding; binding (S-tagged AUP1): no binding; binding (S-tagged TMED1 (human)): binds; binding (S-tagged UBXD8): no binding

B7: FAF2/UBXD8 (endogenous) (protein, UniProt Q96CS3 1-445)
chain: T4 sequence
Question: Which binding (FH-RNF26WT (human)) does the source give for B7 here?
Answer: The binding was “binds”.

B8: AUP1 (endogenous) (protein, UniProt Q9Y679 1-410)
chain: T2 sequence
Question: With B8 as the binder, how does the binding (FH-RNF26WT (human)) read?
Answer: Its binding is “binds”.
